B1: TPR 5TU (parent)
chain: GGAUCUUCUCGAUCUAACAAAAAAGACAAAUCUGCCACAAAGCUUGAGAGCAUCUUCGGAUGCAGAGGCGGCAGCCUUCGGUGGCGCGAUAGCGCCAACGUUCUCAACUAUGACACGCAAAACGCGUGCUCCGUUGAAUGGAGUUUAUCAUG

Variants at the background level are over-represented here. A value given as a limit tells only on which side of the number the result lay.

The data set covers variants of B1. Kind of data set: polymerase ribozyme fitness, log enrichment relative to wild type (log ratio); higher = more active; in vitro selection for triplet polymerase activity. Put shortly: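 Input and output libraries were sequenced on Illumina after a single in vitro selection round, run in triplicate on PCR-built, transcribed mutant libraries of each subunit of a heterodimeric triplet polymerase ribozyme. Selection annealed libraries to a biotinylated primer, the partner subunit and triplets, incubated them frozen at −7 °C, then gel-excised extended constructs for streptavidin-bead capture and RT-PCR. Genotypes with ≥10 input reads and ≥1 read per output were kept. Fitness is the logarithm, taken in base 2, of genotype enrichment divided by wild-type enrichment, using inverse-variance-weighted replicate averages.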
C10G A29U C63A G140U: the “polymerase ribozyme fitness (log ratio)” value was ≤ -4.2. Then C10A A41G G50A C54U C87A A89G C96A A106C, with ≤ -4.2. As for U9G A47U A66C C76G G83A A106C, the “polymerase ribozyme fitness (log ratio)” value is ≤ -4.2. With C10U C14G U77A G84C C108U U111C C118A, the “polymerase ribozyme fitness (log ratio)” value was ≤ -4.2. Consider G11A A24G U53A C69U U77G C87U A97U, for which the “polymerase ribozyme fitness (log ratio)” value is ≤ -4.2. In the case of U9G C27A C96A, the “polymerase ribozyme fitness (log ratio)” value was ≤ -4.2. For C10G A28C G58A A66C G71A C87U C93G the value was ≤ -4.2; for U9G A23C U56A A73U G86C, ≤ -4.2; for C10U A24U C35U A91G C93G A98C C118U, ≤ -4.2.

Regarding C10G U15G A23C G62C A97C C125U, the “polymerase ribozyme fitness (log ratio)” value is ≤ -4.2. Turning to G11A A37G C54U A66C G67C A73G G94U A113U C118G U135G G141A, the “polymerase ribozyme fitness (log ratio)” value was ≤ -4.2. For C10G A40U A64U C76G C85A G117U G136A G143A the value was ≤ -4.2. C10U G58U G83A A89C A110G U148A: the “polymerase ribozyme fitness (log ratio)” value is ≤ -4.2. With U9C U55G C57G G74A G84A C123U G128U, the “polymerase ribozyme fitness (log ratio)” value is ≤ -4.2. As for C10G A89C U148C, the “polymerase ribozyme fitness (log ratio)” value is ≤ -4.2. Turning to C10A G46U U55A U82G C87U C108G A147C, the “polymerase ribozyme fitness (log ratio)” value is ≤ -4.2. In the case of U9C U15G A24C U44A C51G G94A G143A, the “polymerase ribozyme fitness (log ratio)” value is ≤ -4.2. For U9G A28U C75U G84C U104G A106U U144A, the “polymerase ribozyme fitness (log ratio)” value was ≤ -4.2. Then C10G C35U U55G G81A C87A, with ≤ -4.2; and U9G A16G C18A C63U, with ≤ -4.2; and C10G A17G C72G G88C C125U U134A U139A, with ≤ -4.2. Then U9G A17C C57A G59U C63U G94A C108U, with ≤ -4.2; and C10G A17G A22U A24U G46U G59U C87G, with ≤ -4.2.

Consider U9G C54G G86U G94A G140A A150G, for which the “polymerase ribozyme fitness (log ratio)” value was ≤ -4.2. Take C10G C87A: the “polymerase ribozyme fitness (log ratio)” value is ≤ -4.2. For C10U G58A G92U A97C A107G U134G U135G, the “polymerase ribozyme fitness (log ratio)” value is ≤ -4.2. For C10U C51G A52U C87A C123U G141C the value was ≤ -4.2; for G11C A17U C79G G86U U101G C125U G152A, ≤ -4.2; for C10U G42C C69A C95G A142G A150G, ≤ -4.2. Regarding C10A U13G C32G A37C C57A G88A G112C C114U, the “polymerase ribozyme fitness (log ratio)” value was ≤ -4.2. Take C10U G11U A12G A52G C93A U109A: the “polymerase ribozyme fitness (log ratio)” value was ≤ -4.2. Regarding C10A A21U G59C C87A C123A G136A, the “polymerase ribozyme fitness (log ratio)” value was ≤ -4.2. For C10G A49C U53A C116G, the “polymerase ribozyme fitness (log ratio)” value was ≤ -4.2. As for C10G A19C A28C C69G U90A C95A U135C A138U, the “polymerase ribozyme fitness (log ratio)” value is ≤ -4.2. On to C10A A24U A37C A60G G84A C85U, for which the “polymerase ribozyme fitness (log ratio)” value was ≤ -4.2. Then C10G C57G C93G, with ≤ -4.2. Consider C10A A16G C32G G50A G133C, for which the “polymerase ribozyme fitness (log ratio)” value is ≤ -4.2.

As for G11A C93G, the “polymerase ribozyme fitness (log ratio)” value is ≤ -4.2. Take U9G G11A G58U G62C G92A A110U: the “polymerase ribozyme fitness (log ratio)” value is ≤ -4.2. On to C10U A12C C54A C85U C108U, for which the “polymerase ribozyme fitness (log ratio)” value is ≤ -4.2. Consider C10U C57A G74U G88U A115G A119U U145G C149G, for which the “polymerase ribozyme fitness (log ratio)” value was ≤ -4.2.

Take U9G A22C A60C G62A C103A: the “polymerase ribozyme fitness (log ratio)” value was ≤ -4.2.

For U9G A16U A64U C85G U135C U144G A150U, the “polymerase ribozyme fitness (log ratio)” value was ≤ -4.2. For the variant C10G U55A A73C U77C A91U U101G U109A A115U, the “polymerase ribozyme fitness (log ratio)” value was ≤ -4.2. In the case of C10G C38U C123U G133U, the “polymerase ribozyme fitness (log ratio)” value was ≤ -4.2. Regarding C10U C38U A52U U53A U55G G59U G84A G143C, the “polymerase ribozyme fitness (log ratio)” value is ≤ -4.2.

Consider G11C A47C U55A G81A C87G A120U U144A, for which the “polymerase ribozyme fitness (log ratio)” value was ≤ -4.2. For C10U C32A G50U G94U A106U A119C G152A, the “polymerase ribozyme fitness (log ratio)” value is ≤ -4.2.

On to G11C C27U U31G A41C A47U G68C G94C A120U, for which the “polymerase ribozyme fitness (log ratio)” value was ≤ -4.2. For C10U A64C A89C G117C A137C, the “polymerase ribozyme fitness (log ratio)” value was ≤ -4.2. Consider C10G A64C G65U G86U C93G A97G, for which the “polymerase ribozyme fitness (log ratio)” value was ≤ -4.2.

Take U9C U44A G46C A47G C85U A121G: the “polymerase ribozyme fitness (log ratio)” value was ≤ -4.2. Then C10G A41C G42C U61A A89C U90G C93U C99G A107G C116U G140C, with ≤ -4.2; and C10U A39U C54U C87A C99A G133U, with ≤ -4.2. For C10G C38U A52C G88U the value was ≤ -4.2; for C10G A21C A22U C27G C38A A39C A47U A60G C85U C95G U139G, ≤ -4.2; for U9G A28U A73G C85G A106G C116A, ≤ -4.2. Then C10U G48C C54A C79G, with ≤ -4.2. With C10A C36A U55G G59U, the “polymerase ribozyme fitness (log ratio)” value is ≤ -4.2.

Take C10G A47C G62C G68A C87A C118G U127C: the “polymerase ribozyme fitness (log ratio)” value was ≤ -4.2.

Turning to C10U C14A G48C U56A C93A U109G A142G, the “polymerase ribozyme fitness (log ratio)” value was ≤ -4.2. For G11A A26C U90G the value was ≤ -4.2; for C10G C93G, ≤ -4.2. On to C10U A26U U55A A73G G92U A110C, for which the “polymerase ribozyme fitness (log ratio)” value was ≤ -4.2. As for G11A A19U U61A G84C C85A C103G, the “polymerase ribozyme fitness (log ratio)” value is ≤ -4.2. Regarding C10A A40G G42C C54A U82G G84A A98C, the “polymerase ribozyme fitness (log ratio)” value is ≤ -4.2. Consider C10G C32G C57A G65A C87A G124A, for which the “polymerase ribozyme fitness (log ratio)” value is ≤ -4.2. Take C10G A73U: the “polymerase ribozyme fitness (log ratio)” value is ≤ -4.2. U9G C36U C76A G94A: the “polymerase ribozyme fitness (log ratio)” value was ≤ -4.2.

With U9G C36A A40C U44A C96G A97U, the “polymerase ribozyme fitness (log ratio)” value was ≤ -4.2. On to C10A A24C A29C, for which the “polymerase ribozyme fitness (log ratio)” value is ≤ -4.2.

With C10U A17U A41C G50C G84A, the “polymerase ribozyme fitness (log ratio)” value is ≤ -4.2. Take C10U A26G A37U G68A G81C: the “polymerase ribozyme fitness (log ratio)” value is ≤ -4.2. Turning to C10G C43U G50A U82C C105G A138C G141C, the “polymerase ribozyme fitness (log ratio)” value is ≤ -4.2. Regarding C10G U13C C57U U61A G94U U127G G136A, the “polymerase ribozyme fitness (log ratio)” value is ≤ -4.2. For U9G A26U A73G G84A A89C A150C, the “polymerase ribozyme fitness (log ratio)” value is ≤ -4.2. For the variant C10U G11C A17C A26U G81A G92A U111G A137G U148G, the “polymerase ribozyme fitness (log ratio)” value is ≤ -4.2. For G11A U31A, the “polymerase ribozyme fitness (log ratio)” value is -0.715. On to C10A C32G U77A C87G C116U, for which the “polymerase ribozyme fitness (log ratio)” value was ≤ -4.2. Consider U9G U82A C116G A120G G124C A142G, for which the “polymerase ribozyme fitness (log ratio)” value is ≤ -4.2.

Turning to C10G C87U C99G U127A, the “polymerase ribozyme fitness (log ratio)” value was ≤ -4.2. On to C10U U55G U90A C103G G143C, for which the “polymerase ribozyme fitness (log ratio)” value was ≤ -4.2. Turning to U9G G59C C72U C87U A91C, the “polymerase ribozyme fitness (log ratio)” value is ≤ -4.2.

The values are drawn from the RNAGym collection of RNA variant scans (doi:10.1073/pnas.2313332121).
